This is an account of results in patent publication EP0821003B1, “PEPTIDES AND REMEDY FOR AUTOIMMUNE DISEASES COMPRISING THE SAME” (Aventis Pharma Ltd., priority 1995, dated 2003).

Like-named read-outs stand apart in the source and are kept apart here. No end group written: not given here.

The test relates to rat carrageenin-induced paw edema model. The method, then:
To physiological saline, λ-carrageenin ("PICNIN-A", Zushi Chemical Co.) was added at the final concentration of 1 w/v%, and it was heated in a boiling water bath to dissolve l-carrageenin completely. The resulting solution was then allowed to stand at room temperature. Before the experiment, the solution was dissolved completely by heating in a boiling water bath and was allowed to stand in a water bath of about 60íC until administration. Immediately after 50 µl of Peptide (I) of the present invention or physiological saline (non-administered group) were administered subcutaneously to the left leg of Splague-Dawley rats (6 weeks old, male), 50 µl of the 1% carrageenin solution were administered to the same site. The paw volume was measured using plethysmometer (product of BM Instrument Co.) every one hour for 5 hours after carrageenin administration. Incidentally, each group consisted of 10 rats and Dunnet ? s two tail method was used for statistical analysis.

With AKLTFGKGT [Peptide (I)], the “Suppressive effect on edema (%)” value runs as follows: (0.2 µg/site subcutaneously, 1 hour after carrageenin) 2.3%; (0.2 µg/site subcutaneously, 2 hours after carrageenin) 3.9%; (0.2 µg/site subcutaneously, 5 hours after carrageenin) 4.8%; (10 µg/site subcutaneously, 1 hour after carrageenin) 30.2%; (10 µg/site subcutaneously, 2 hours after carrageenin) 37.3%; (10 µg/site subcutaneously, 5 hours after carrageenin) 27.5%. The onset of edema entry is, setting by setting: (10 µg/site group, five hours after carrageenin) “tendency to suppress the edema onset was observed”; (10 µg/site group, two hours on and after carrageenin) “suppressed two hours on and after the administration of carrageenin with a significant difference of 5%”; (one hour after the administration of carrageenin) “tended to be suppressed”.
